In the supplement of paper PMC3334620:
Over roughly 33,000 sequences, “E-score (-0.5 to 0.5)” has its median near -0.017; the highest 2% begin near 0.3. Some of the results follow.

Biological target: T1, Sut1 (UniProt P53032)
T1 sequence: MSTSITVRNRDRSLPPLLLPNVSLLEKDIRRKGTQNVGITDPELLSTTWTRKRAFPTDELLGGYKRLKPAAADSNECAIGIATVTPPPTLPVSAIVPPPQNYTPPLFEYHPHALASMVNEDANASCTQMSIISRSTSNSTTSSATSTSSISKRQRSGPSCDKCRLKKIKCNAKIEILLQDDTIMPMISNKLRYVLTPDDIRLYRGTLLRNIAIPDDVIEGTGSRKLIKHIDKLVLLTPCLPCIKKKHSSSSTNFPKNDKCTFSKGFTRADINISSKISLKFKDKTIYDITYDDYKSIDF
Assay: PBM E-score (8-mer binding enrichment) (E-score (-0.5 to 0.5)); higher = stronger / more preferred TF binding; most listed sequences are background and not binding sites
Details: protein concentration: 200 nM; construct: GST-full length
Outline: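 Yeast transcription factors carrying a GST tag, as full-length proteins or DNA-binding domains, were produced by PURExpress in vitro transcription/translation. About 100-200 nM protein was applied to universal all-10-mer Agilent arrays, double-stranded by primer extension on fresh or once-stripped slides. Bound protein was detected with fluorescent anti-GST, and scans were normalised with masliner. The Universal PBM Analysis Suite gave each ungapped eight-base word, pooled with its reverse complement, an E-score, a modified Wilcoxon-Mann-Whitney statistic.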

Row | Sequence | PBM E-score
1 | TTCCCGAA | 0.162
2 | AGTGGGGA | -0.158
3 | AAGCTCTC | -0.127
4 | GAGTCACA | -0.108
5 | ACATGGAA | 0.0799
6 | ACACCGGT | 0.0191
7 | CCACAACA | -0.131
8 | CGACCAGC | -0.199
9 | ACATTATC | 0.102
10 | CTAGGCAG | -0.0628
11 | AATTCCTA | 0.138
12 | GGGAGGCA | -0.305
13 | ATCCTCTC | -0.121
14 | GTCGCAAA | 0.131
15 | CGTACCCC | 0.023
16 | AGGCTGTA | -0.0333
17 | ACAAAGAT | 0.159
18 | ACCGGGAT | -0.00686
19 | AGTCATAC | 0.00053
20 | ACCCTACG | -0.102
21 | CGTTCCGA | 0.0366
22 | GCACATCC | -0.219
23 | CGCTCCTC | -0.184
24 | ACTGCCAT | -0.0998
25 | TAACCAGA | -0.0534

Row | Sequence | PBM E-score
26 | ACAATATA | 0.29
27 | CTCCAGTA | -0.0808
28 | CTATGCAA | -0.0556
29 | ATGTACAA | 0.0935
30 | ACGGTACC | 0.0939
31 | GAACGGCA | 0.0523
32 | CAGCACGA | -0.162
33 | CACGTAAC | -0.16
34 | GCCGCTAC | -0.131
35 | AGTATGTG | 0.247
36 | AAGCTGTG | -0.179
37 | ATGAGCTA | 0.0367
38 | GGGATTTA | 0.187
39 | GTTAAATA | 0.249
40 | ACCATCAT | 0.143
41 | ATCAGCTC | -0.0823
42 | ATGTAGTA | 0.177
43 | GCACTGAA | 0.00589
44 | TAAGTCTA | -0.116
45 | CTAACCCA | -0.102
46 | TGTTGAAA | 0.107
47 | CTTTAGGA | -0.00397
48 | CGGCCCCC | -0.367
49 | TGTGAGAA | 0.127
50 | ACGGGATC | 0.0187

Row | Sequence | PBM E-score
51 | GAGAGTCA | -0.119
52 | TCCACCCA | -0.205
53 | AGTCCCAA | -0.154
54 | AATTGTGA | 0.169
55 | GGTTAACC | -0.148
56 | AAGCGTCA | -0.0469
57 | GGCCGCCC | -0.227
58 | AACCTTTG | 0.0541
59 | AACATTCC | 0.0359
60 | CGATTCCA | 0.0585
61 | AGGTTACC | 0.168
62 | CGAGGTTC | 0.0362
63 | ATGAAACC | 0.0449
64 | AATCCTAC | -0.0158
65 | ATTCGGCA | 0.0323
66 | AGTCCAGC | -0.137
67 | CATCAAGC | -0.00808
68 | AGTCTTAA | -0.0471
69 | CCATAACA | 0.0447
70 | GTTGAGTA | 0.133
71 | ACCGCTCG | -0.0322
72 | CTAGCTAA | -0.082
73 | ATTGGGTC | 0.04
74 | ATTTCTAA | 0.0131
75 | AGCGCGAC | -0.0635

Row | Sequence | PBM E-score
76 | CCCAGAAC | -0.0765
77 | CCGCGAGA | -0.257
78 | CGAGTCAC | -0.156
79 | TCGTATCA | 0.0667
80 | GAGCGCAA | -0.157
81 | GCGGGTTA | -0.334
82 | GAAGGATA | 0.042
83 | ACAGGCGC | -0.217
84 | AGCAGAAG | -0.162
85 | CGTTTGAC | -0.115
86 | AAATTATC | 0.281
87 | AGATTGAC | -0.082
88 | GTGTAGGA | -0.0986
89 | GACGTAAC | 0.0399
90 | GTGTATGA | 0.206
91 | ACGGTTAA | 0.103
92 | ATGATCGG | -0.0227
93 | ATTTATGA | 0.145
94 | ATCCTTTA | 0.108
95 | AGAGGTAT | 0.136
96 | CACGCGAA | -0.119
97 | AATCTGCA | -0.17
98 | CACAAGTG | -0.141
99 | CCAGCACA | -0.164
100 | CGCTCCGC | 0.0358

Row | Sequence | PBM E-score
101 | GTAGTGAA | 0.125
102 | TAGGCTAA | -0.0895
103 | CACTATCA | -0.0232
104 | TCTTTGAA | 0.116
105 | GAACAAAA | 0.243
106 | AACCAAAA | 0.228
107 | CAGTTCAA | 0.0635
108 | CCCACATA | -0.231
109 | ACCCAGGA | -0.13
110 | ATTTCTAG | 0.231
111 | GACATCTA | 0.149
112 | CACGTGTA | -0.158
113 | CCACATGG | -0.139
114 | AGTACGAC | -0.191
115 | AGCCATTC | -0.116
116 | CTTGTCAA | 0.152
117 | AATAATAT | 0.346
118 | AGGAGAAG | -0.165
119 | CTAGGGAC | -0.127
120 | GTGTCTCA | -0.146
121 | CACAGAAC | -0.134
122 | CAGCCATA | -0.161
123 | CGAGGCCG | -0.304
124 | AAGTCTGA | -0.193
125 | GCAGTAGC | -0.296

Row | Sequence | PBM E-score
126 | AACGAATA | -0.0104
127 | CACCCTCG | -0.261
128 | ACGGGGAT | 0.133
129 | CTTGGGTC | -0.328
130 | AGGCAATA | -0.108
131 | TTGGAAAA | 0.134
132 | GAGGTCCA | -0.167
133 | CAAACTGG | 0.0543
134 | ACGCGAGC | -0.0165
135 | TCGAGTAA | 0.0104
136 | AGCTGTTG | -0.0202
137 | ATGAGAAG | -0.179
138 | AGGCGCCT | -0.315
139 | CCATCAGC | -0.184
140 | CCCAATCC | -0.211
141 | GGAGACAA | 0.0139
142 | CCAGGTTC | -0.2
143 | AATCCTAT | 0.199
144 | GCGACCCA | -0.103
145 | CTTTCCTC | 0.00703
146 | GCTGTGCA | -0.285
147 | GGCAGGCC | -0.192
148 | CCCCCCGC | -0.282
149 | GGCCAGCA | -0.168
150 | CAAAGGTG | -0.101

Row | Sequence | PBM E-score
151 | ATGCAGCG | -0.219
152 | AAAACGAC | 0.0435
153 | AGAATAGG | 0.173
154 | AGAGGATA | 0.0609
155 | GTTCCGGA | 0.342
156 | CCTGCCAG | -0.312
157 | ACGTTCCG | -0.101
158 | AGTGGTAC | -0.158
159 | ATGATCCG | -0.0542
160 | CCCCATCA | -0.248
161 | CAGCTATC | -0.207
162 | ATCTAATA | 0.194
163 | CGTAGATC | 0.0372
164 | ACTAGACA | 0.102
165 | AGCTTCGC | -0.0959
166 | TATTGTGA | 0.0252
167 | AAAGACTA | 0.0422
168 | CGTCCTAG | -0.167
169 | GCGGGAGC | -0.162
170 | AAGCCGGT | -0.073
171 | CAAGGGAG | -0.0721
172 | ATCCCCAT | -0.142
173 | CCGTACGC | -0.153
174 | ATGTATGC | 0.0223
175 | CCAATTGG | -0.0777

Row | Sequence | PBM E-score
176 | CCGTTTTA | 0.139
177 | GCTGCTTA | -0.0582
178 | GACTAACC | -0.0877
179 | ACATAGTG | 0.13
180 | ACGAAACG | 0.0677
181 | TAGATAAA | 0.206
182 | GGTGGATA | -0.0355
183 | CACTCAAC | 0.0846
184 | GACAAGTA | -0.0227
185 | ACAAACCG | 0.104
186 | CGCTCGAA | -0.0769
187 | AGGTCCTG | -0.165
188 | AGAGCTTC | -0.0303
189 | AAACCACA | -0.00511
190 | ATCTGAAA | 0.0681
191 | AGACGTCC | -0.0578
192 | CCCTGTAG | -0.0873
193 | GATACTGC | 0.126
194 | CACCGGGG | -0.0525
195 | AGCGTGCA | -0.0658
196 | ATTCACTG | 0.0621
197 | CTAATGGC | 0.00327
198 | CCCACAAC | -0.0114
199 | CGGTGGGA | -0.273
200 | AAAACTCT | 0.0523

Row | Sequence | PBM E-score
201 | CACTCGCA | -0.0703
202 | ATAGGCCA | -0.0395
203 | ACTATCAG | -0.0721
204 | CAGACCGC | -0.0767
205 | AATCAGTC | 0.0821
206 | AGATCTCG | -0.0106
207 | CCAAAAAC | 0.164
208 | CACATTCA | 0.152
209 | ACCGGGCG | -0.26
210 | ATGGTTTC | 0.128
211 | CAATTGGA | 0.0193
212 | AGTACTGA | 0.0787
213 | ATGCTAGC | 0.113
214 | CTTATAGA | 0.149
215 | GACAATCC | 0.109
216 | TAAGTCAA | 0.093
217 | AAGCAAGA | 0.0766
218 | ACCATTGA | 0.0561
219 | TCGACCGA | -0.118
